Article PMC4336329 (PLoS ONE, 2015)
The campaign covered roughly 310,000 compounds. About 14,000 (4.5%) showed an effect of 50% or more. The effect is printed as a negative number. This is one part of the list.

target: human ether-à-go-go-related gene (hERG) potassium channel (human, UniProt Q12809); test: primary screen, population patch clamp on CHO cells stably expressing hERG
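Also: peak tail current of the secondary pulse compared with the same well before compound.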

Chain of human ether-à-go-go-related gene (hERG) potassium channel (Q12809 whole entry, looked up): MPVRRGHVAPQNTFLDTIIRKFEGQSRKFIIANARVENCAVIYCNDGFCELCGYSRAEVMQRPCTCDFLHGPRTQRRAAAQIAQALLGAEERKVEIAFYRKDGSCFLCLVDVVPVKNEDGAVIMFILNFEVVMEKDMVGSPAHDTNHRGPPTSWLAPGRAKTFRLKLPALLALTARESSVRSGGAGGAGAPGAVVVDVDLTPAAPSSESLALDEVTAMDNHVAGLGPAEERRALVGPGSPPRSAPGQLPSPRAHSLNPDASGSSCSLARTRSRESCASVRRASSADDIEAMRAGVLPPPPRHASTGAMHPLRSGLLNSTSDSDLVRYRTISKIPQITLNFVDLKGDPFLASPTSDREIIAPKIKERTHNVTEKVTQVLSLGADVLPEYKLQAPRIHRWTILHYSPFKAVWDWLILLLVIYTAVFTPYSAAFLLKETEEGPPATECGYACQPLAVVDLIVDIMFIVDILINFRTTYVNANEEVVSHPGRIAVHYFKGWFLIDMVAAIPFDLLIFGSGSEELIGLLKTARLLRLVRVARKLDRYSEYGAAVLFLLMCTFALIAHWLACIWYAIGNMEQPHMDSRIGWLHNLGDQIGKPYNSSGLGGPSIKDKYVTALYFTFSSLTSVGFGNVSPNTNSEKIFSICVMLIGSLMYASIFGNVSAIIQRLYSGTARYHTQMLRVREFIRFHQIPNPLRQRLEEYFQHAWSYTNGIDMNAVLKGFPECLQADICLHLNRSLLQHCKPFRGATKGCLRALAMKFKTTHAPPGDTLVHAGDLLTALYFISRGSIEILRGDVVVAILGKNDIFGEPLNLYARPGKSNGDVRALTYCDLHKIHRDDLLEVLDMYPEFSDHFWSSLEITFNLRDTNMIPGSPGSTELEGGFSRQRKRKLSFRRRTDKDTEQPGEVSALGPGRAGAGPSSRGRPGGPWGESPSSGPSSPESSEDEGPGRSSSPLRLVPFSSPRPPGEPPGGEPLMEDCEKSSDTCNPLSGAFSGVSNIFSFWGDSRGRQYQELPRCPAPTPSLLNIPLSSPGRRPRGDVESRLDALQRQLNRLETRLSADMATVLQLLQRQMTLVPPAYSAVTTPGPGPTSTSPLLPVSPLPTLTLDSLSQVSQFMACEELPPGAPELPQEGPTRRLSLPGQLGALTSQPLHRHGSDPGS

Structure (SMILES)	hERG current change (%, negative = inhibition) at 10uM [%]
COC(=O)c1cccc(-n2nnnc2SCC(=O)Nc2nc3c(s2)CCCC3)c1	-0.926
O=C(CN(c1ccc(F)cc1)S(=O)(=O)c1ccccc1)Nc1ccccc1C(=O)O	14.5
O=C(c1ccco1)N1CCN(C(=S)Nc2ccc(F)c(Cl)c2)CC1	-71.9
COC(=O)N/N=C/c1ccc([N+](=O)[O-])s1	6.86
CCN(N=Nc1nonc1OC)c1nonc1OC	-2.77
COc1ccc(N2Cc3ccccc3C2=NC(=O)c2cncc(Br)c2)cc1	-2.95
O=C(CSc1ccc2ccccc2n1)c1ccccc1	12.8
CCc1ccc(NC(=O)C2CCCN(S(=O)(=O)c3ccc4c(c3)CC(C)N4C(C)=O)C2)cc1 (stereo not shown)	-16.4
C=CCN(CC=C)CC(O)CN(c1cc([N+](=O)[O-])ccc1OC)S(=O)(=O)c1ccccc1 (stereo not shown)	-10.7
CC(Oc1ccccc1)C(=O)N1CCN=C1SCc1ccc(F)cc1 (stereo not shown)	-15.3
COc1ccc(C(=O)N2CCC(C(=O)Nc3ccccc3C)CC2)cc1OC	-3.88
COc1ccccc1C1SCCN1C(=O)c1ccc([N+](=O)[O-])cc1 (stereo not shown)	-38.7
COc1ccc(C(=O)NNc2ccccc2)cc1OC	0.464
Cc1cc(C)cc(C(=O)NCC(=O)OCC(=O)c2c(N)n(C)c(=O)n(C)c2=O)c1	17.4
CSc1n[nH]c(/N=C/c2oc(O)c3ccccc23)n1	17.6
CC(=O)NCCN1C(=O)C2C3c4ccccc4C(c4ccccc43)C2C1=O (stereo not shown)	10.4
O=C(Nc1ccccc1Cl)C1CCN(Cc2cnn(-c3ccccc3)c2-n2cccc2)CC1	-24.9
CCCCn1nc2cc(C(=O)NCCCCc3ccccc3)ccc2c1OCC	3.17
COc1ccccc1-c1noc(CCCC(=O)Nc2ccc(C(N)=O)cc2)n1	7.25
COc1ccc(OCC(=O)N2N=C(C)CC2(O)C(F)(F)F)cc1 (stereo not shown)	19.6
Cn1c(CO)cnc1SCc1ccc([N+](=O)[O-])cc1	-4.26
O=C(CSc1nnc(Cc2ccsc2)o1)c1ccccc1	-16.7

Structure (SMILES)	hERG current change (%, negative = inhibition) at 10uM [%]
COc1cc2c(cc1OC)CN(C(=O)/C=C/c1cc(OC)c(OC)c(OC)c1)CC2	3.11
Nc1nc2c(c3c1c(=O)oc1ccccc13)CCCCC2	7.95
CC(C)c1ccc(S(=O)(=O)N2CCN(C(=O)c3ccco3)CC2)cc1	-21.1
Cc1ccccc1NC(=O)Cn1cnc2c(oc3nc4c(cc32)COC(C)(C)C4)c1=O	1.57
Cl.O=C(CC(Nc1ccccc1)c1ccc(F)cc1)c1ccccc1 (stereo not shown)	-9.51
COc1ccc(C(=O)Nc2nnc(S(=O)(=O)N(C)Cc3ccccc3)s2)cc1	7.21
CC(C)OCCCn1c(SCC(=O)N2CCc3ccccc32)nc2ccccc2c1=O	6.61
Clc1ccccc1-c1nnc(-c2cccs2)o1	7.75
CNC(=O)C12N=CNN=C1N(C)C(=O)N2C (stereo not shown)	16.2
CCCNC(=O)N1CCC(C(=O)c2cccc(F)c2)CC1	-10.9
CCCCN(C(=O)/C=C/c1ccc(OC)cc1)C1CCS(=O)(=O)C1 (stereo not shown)	-41.5
CCC(C)(C)NC(=O)C(c1ccc(OC)cc1)N(C(=O)CCC(=O)Nc1cc(C)on1)c1ccc(OC)cc1OC (stereo not shown)	-7.89
Cc1cc(Br)ccc1NC(=O)CN1C(=S)NC(C)(C)CC1C (stereo not shown)	4.43
Cl.N=C1C(c2nc(-c3ccc(Cl)cc3)cs2)=C(O)CN1CCCN1CCOCC1	-30.4
CC(=O)N1CCOc2ccc(S(=O)(=O)N(C)c3ccc(C)cc3)cc21	-13.2
CC1CCN(C(=O)CSc2nnc(Cc3cccn3C)n2CCc2ccccc2)CC1	-18.5
Cc1ccccc1-n1nc2c(c1NC(=O)CCCl)CSC2	-0.405
COc1cc(C(=O)NC23CC4CC(CC(C4)C2)C3)cc(OC)c1OC	16.1
CCOC(=O)CSCc1csc(CC(=O)Nc2ccccc2C)n1	13.5
O=C(Nc1cccc(S(=O)(=O)N2CCCCC2)c1)c1ccc2c(=O)n3c(nc2c1)CCCCC3	-64.5
COc1ccc(NC(=S)NCCNC(C)=O)cc1	26.8
Nc1nc(SCc2ccc3c(c2)OCO3)n[nH]1	9.57

Structure (SMILES)	hERG current change (%, negative = inhibition) at 10uM [%]
Fc1ccc(-c2nc3ccncc3[nH]2)cc1	-0.189
O=C(COc1cccnc1[N+](=O)[O-])NCCc1ccc(Cl)cc1Cl	-18.4
O=C(Nc1ccc2nc3n(c(=O)c2c1)CCCC3)c1ccccc1F	-38.6
Cc1ccc(NC(=O)CN2C(=O)S/C(=C\c3cccn3-c3cccc(C(=O)O)c3)C2=O)c(C)c1	16.3
FC(F)Oc1ccc(NC(=S)NCc2nc3ccccc3[nH]2)cc1	-79.2
CC(C)Cc1ccc(CN2CCC(n3nccc3NC(=O)C3CCCC3)CC2)cc1	-72.4
CCCCn1c(N)c(N(CC(C)C)C(=O)CC2CCCCC2)c(=O)[nH]c1=O	-9.22
O=C(O)C1Cc2[nH]cnc2C(c2ccc(F)cc2)N1 (stereo not shown)	4.22
O=C(COC(=O)c1ccccc1)Nc1cccc(S(=O)(=O)N2CCOCC2)c1	-26.5
Cc1nnc(SCc2ccccc2)n(N)c1=O	-4.28
CN(C)CCCNC(=O)C1CCNCC1	14
Fc1ccc(Oc2nnnn2-c2ccccc2)cc1	44.8
CN1CC2([N+](=O)[O-])CC=C(OCCO)C([N+](=O)[O-])(C1)C2 (stereo not shown)	16.3
CCCCN(C(=O)CSCC(=O)Nc1cccc(C)c1)c1c(N)n(Cc2ccccc2)c(=O)[nH]c1=O	-10.9
O=c1[nH]c(/C=C/c2ccc(Cl)cc2Cl)c([N+](=O)[O-])c(=O)[nH]1	8.89
COc1ccc(NC(=O)CC2Nc3ccccc3NC2=O)c([N+](=O)[O-])c1 (stereo not shown)	-6.07
O=c1c2cc(NC(=S)NCc3cccnc3)ccc2nc2n1CCCCC2	-10.1
CCCN(CC(=O)Nc1ccccc1C)C(=O)/C=C/c1cccs1	-13.6
Cc1ccc(-c2nn3c(-c4ccco4)nnc3c3ccccc23)cc1S(=O)(=O)NCC1CCCO1 (stereo not shown)	-16
Cn1ccc(C(=O)N/N=C/c2cccnc2)n1	28.6
CCC(C)NC(=O)CSc1nc2ccccc2c(=O)n1CCCC(=O)NCC1CCCO1 (stereo not shown)	-2.9
COCCOC(=O)c1c(C)oc2ccc(NS(=O)(=O)c3ccc(C(=O)O)cc3)cc12	10.6

Structure (SMILES)	hERG current change (%, negative = inhibition) at 10uM [%]
COc1cccc(OCC(O)CNC(=O)c2oc3c(C)c(C)ccc3c2C)c1 (stereo not shown)	7.14
Cc1cccc(N(CC(=O)N/N=C/c2ccccc2C(=O)O)S(C)(=O)=O)c1C	-28.9
COc1ccc(NC(=S)N/N=C2/CCCc3c(C)cc(C)cc32)cc1	3.99
CCCCOc1ccc(N(CC(=O)NC2CCCCC2)C(=O)CCC(=O)Nc2ccccn2)cc1	10.5
COc1ccc2[nH]c3c(=O)n(N)c(=O)[nH]c3c2c1	10.8
CCOc1ncccc1C(=O)OCC(=O)c1ccc[nH]1	11.3
COc1ccc(CN2CCCC(C(=O)c3cccc(Cl)c3)C2)cc1 (stereo not shown)	-57.4
Cc1cc(C)c(C#N)c(N2CCCC(C(N)=O)C2)n1 (stereo not shown)	-9.2
COc1ccc2c(Cl)c(C(=O)N/N=C/c3ccc4c(c3)OCO4)sc2c1	19.5
C=CCSc1nnc(NC(=O)COc2ccc3ccccc3c2)s1	11.8
CCn1nc(C(=O)NCC(c2cccs2)N2CCOCC2)c2ccccc2c1=O (stereo not shown)	-12.3
COC1CCN(C(=O)c2ccc3oc(Cc4ccc(Cl)cc4)nc3c2)CC1	-9.5
CCC(Sc1nc(N)c(NC(=O)c2ccc(OC)cc2)c(=O)[nH]1)C(=O)O (stereo not shown)	1.73
COc1ccc(N(CC(=O)Nc2cccc(C)c2C)S(=O)(=O)c2c(C)n[nH]c2C)cc1	-12.5
Oc1ccccc1OCC(O)c1ccccc1 (stereo not shown)	22.8
N#Cc1ccc(C(=O)NC23CC4CC(CC(C4)C2)C3)cc1	-6.7
COc1ccc(/C=C2/SC(=O)N(NS(=O)(=O)c3ccccc3)C2=S)cc1OC	0.364
Cc1ccc(NS(=O)(=O)c2ccc(CCC(=O)NCc3cccnc3)cc2)cc1	14.9
CCN(CC)CCCn1c2c(c(SCC(=O)Nc3ccc(C)c(F)c3)nc1=O)CCC2	-64.5
COC(=O)C1=C(CSc2nncn2C)NC(=O)NC1c1ccc(F)cc1 (stereo not shown)	11.1
Cc1nc2c(C)cccc2cc1C(=O)N/N=C/c1ccc(O)cc1	6.88
CCc1nc(N[C@@H](CC(C)C)C(=O)O)c2oc3ccccc3c2n1	-9.19
